Results: PubChem BioAssay AID588342 (National Center for Advancing Translational Sciences (NCATS), 2011)
Among all 360,000 compounds or so, about 25,000 (6.9%) were called active. This list was built around the results that the source calls inconclusive (neither active nor inactive); the mix of calls is not that of the screen. Calls come from the whole dose curve; as a rule, active = well fitted inhibition curve with a large enough effect; inconclusive = small, poorly fitted or top-dose-only effect; inactive = flat fitted curve, though single readings scatter. A potency beside an inconclusive call is a rough fit, not a confirmed value.

Biological target: Luciferin 4-monooxygenase (Photinus pyralis) (UniProt P08659)
Experiment: qHTS profiling assay for firefly luciferase inhibitor/activator using purifed enzyme and Km concentrations of substrates (counterscreen for miR-21 project); note: nearly all actives have a fitted effect of over 55% in size
Settings: purified FLuc, luminescence inhibition; series mostly up to 57.5 µM
Procedure, shortened: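 Purified P. pyralis luciferase (10nM final) with 10uM D-luciferin and 10uM ATP (Km levels) in 50mM Tris acetate pH 7.5, 10mM Mg acetate, 0.01% Tween-20, 0.05% BSA; qHTS 6-point titration, ~60 µM downward; luminescence read.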
Potency is the fitted concentration of half-maximal effect; tags give direction and shape of the fitted curve.

Sequence of UniProt P08659 (P08659 whole entry, looked up): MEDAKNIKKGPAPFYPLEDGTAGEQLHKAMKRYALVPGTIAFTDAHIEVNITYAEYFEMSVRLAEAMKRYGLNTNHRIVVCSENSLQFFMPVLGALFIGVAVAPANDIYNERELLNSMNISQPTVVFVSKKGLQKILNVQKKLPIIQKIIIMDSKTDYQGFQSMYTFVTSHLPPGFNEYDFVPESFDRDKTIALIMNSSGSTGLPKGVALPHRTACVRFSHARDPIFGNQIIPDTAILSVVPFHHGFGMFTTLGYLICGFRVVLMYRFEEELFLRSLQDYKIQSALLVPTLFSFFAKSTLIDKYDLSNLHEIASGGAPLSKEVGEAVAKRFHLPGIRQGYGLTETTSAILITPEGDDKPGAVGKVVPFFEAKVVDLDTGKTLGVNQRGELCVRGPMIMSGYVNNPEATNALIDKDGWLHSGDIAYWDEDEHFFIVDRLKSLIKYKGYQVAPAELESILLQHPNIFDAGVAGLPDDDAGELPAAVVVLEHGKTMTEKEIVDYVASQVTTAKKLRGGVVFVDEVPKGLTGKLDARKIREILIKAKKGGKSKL

SMILES	Potency
COc1ccc(OC)c(-c2csc(N(C)C(=O)c3ccco3)n2)c1	inconclusive: 21.3 µM [inhibitor, single point]
Cn1c(N/N=C\c2cccc(O)c2)cc(=O)n(C)c1=O	inconclusive: 42.6 µM [inhibitor, partial curve, poor fit]
Cc1noc(NC(=O)c2cccc(C(F)(F)F)c2)c1Cl	inconclusive: 21.3 µM [inhibitor, partial curve, poor fit]
Cc1ccccc1C(=O)NC1CCN(CC(=O)NCc2ccccc2)CC1	inactive
Cc1cc(C)cc(NC(=O)CSc2nc(=O)n(CCCN3CCOCC3)c3c2CCCC3)c1	inactive
O=C(CN1CCc2cc3c(cc2C1)OCCCO3)Nc1ccccc1	inactive
CC(=O)c1ccc(N2CCN(C(=O)c3ccc(NC4=NC5CS(=O)(=O)CC5S4)cc3)CC2)cc1 (configuration not stated)	inconclusive: 26.9 µM [inhibitor, partial curve, poor fit]
Cc1cccc(N2CCN(Cc3ccoc3)CC2)c1C	inconclusive: 26.9 µM [inhibitor, single point]
COc1ccc(N=Cc2cccc(C)c2O)cc1Cl	active: 26.9 µM
CCSc1nnc2c(n1)[nH]c1c(C)cccc12	active: 12 µM
Cc1ccc(S(=O)(=O)N2CCN(C(=O)COC(=O)CCOc3ccc(C(C)(C)C)cc3)CC2)cc1	inconclusive: 30.1 µM [inhibitor, single point]
O=c1c2cc(NC(=S)NCc3cccnc3)ccc2nc2n1CCCCC2	inconclusive: 26.9 µM [inhibitor, partial curve, poor fit]
S=C(NC12CC3CC(CC(C3)C1)C2)N1CCOCC1	inconclusive: 23.9 µM [inhibitor, partial curve]
O=C(NC(=S)Nc1cccnc1)c1cccs1	inconclusive: 37.9 µM [inhibitor, partial curve, poor fit]
Cc1ccc(C(=O)Nc2ccncc2)c(C)c1	inconclusive: 26.9 µM [inhibitor, single point]
COc1ccc(/C=C2\N=C(c3ccccc3Cl)NC2=O)cc1	active: 1.69 µM
CCc1ccccc1N(C)S(=O)(=O)c1ccc2c(c1)C(C)(C)C(=O)N2C	inactive
NNC(=O)c1ccc(-c2ccccc2F)cc1	inconclusive: 23.9 µM [inhibitor, partial curve, poor fit]
Cc1ccc(CNC(=O)CSc2nnc(CNC(=O)c3ccccc3)o2)cc1	inactive
O=C(CSc1nnc(NC(=O)c2ccccc2Cl)s1)Nc1ccc2c(c1)oc1ccccc12	active: 0.953 µM
C=Cc1ccc(Cn2ccn(-c3ccc(F)c(F)c3)c(=O)c2=O)cc1	inconclusive: 30.1 µM [inhibitor, partial curve, poor fit]
Cc1ccc(NC(=O)N(Cc2cccnc2)Cc2ccco2)cc1C	inactive
CCOc1cc(-c2nccc3cc(OC)c(OC)cc23)cc(OCC)c1OCC	inactive
O=C(c1ccc(S(=O)(=O)c2cccc(Cl)c2)c([N+](=O)[O-])c1)N1CCN(c2ccccn2)CC1	inactive

SMILES	Potency
O=c1/c(=C/c2ccc(O)cc2)sc2n1CCCN=2	active: 9.53 µM
CC(=O)Nc1ccc(NC(=O)CSc2ccc(-c3ccco3)nn2)cc1	inconclusive: 37.9 µM [inhibitor, single point]
COc1ccc(NC(=O)C2=C(C)Nc3ncnn3C2c2ccc[nH]2)cc1 (configuration not stated)	inactive
O=C1c2cccnc2C(Nc2ccc(S(=O)(=O)N3CCCCC3)cc2)N1Cc1ccccc1 (configuration not stated)	inactive
CCCOC(=O)c1ccc(NC(=O)C(=O)NCC2CCCO2)cc1 (configuration not stated)	inconclusive: 9.53 µM [inhibitor, partial curve, poor fit]
O=C(CCc1ccc(S(=O)(=O)N2CCOCC2)cc1)N/N=C/c1cccc(O)c1	inconclusive: 23.9 µM [inhibitor, single point]
CCOc1cccc(-c2cc(C(=O)N3N=C(C)CC3(O)C(F)F)c3ccccc3n2)c1 (configuration not stated)	active: 23.9 µM
Clc1ccc(/C=N/c2c(-c3ccco3)nc3ccccn23)cc1	active: 15.1 µM
Cc1ccc(C(=O)COC(=O)C(C)N2C(=O)C3C4C=CC(C4)C3C2=O)cc1C (configuration not stated)	active: 13.5 µM
Cc1cc(=O)n2[nH]c(-c3ccccc3)cc2n1	inconclusive: 19 µM [inhibitor, partial curve]
COc1ccc(-c2nc(CSc3nnc(C)n4c3cc3oc(C)cc34)c(C)o2)cc1OC	inactive
CCc1ccc(NC(=O)C(=O)NCc2ccccn2)cc1	active: 19 µM
COc1ccc(Sc2nc(-c3ccccc3)ncc2C(=O)O)cc1	inconclusive: 37.9 µM [inhibitor, single point]
COc1ccc(/C=N/NC(=O)CCn2c3ccccc3c3ccccc32)cc1O	active: 10.7 µM
CC1CCCN(C(=O)Nc2cccc(NC(=O)N3CCCC(C)C3C)c2)C1C (configuration not stated)	inconclusive: 19 µM [inhibitor, partial curve]
CC(C)CCNC(=O)c1ccc2c(SCC(=O)O)c3c(nc2c1)CCCC3	inconclusive: 30.1 µM [inhibitor, partial curve, poor fit]
COc1cc(Cl)c(C)cc1NC(=O)c1cnn(-c2ccc(F)cc2F)c1C1CCN(C(=O)OC(C)(C)C)CC1	inactive
Cc1ccc(SC(C)c2nc(-c3ccccc3)no2)cc1 (configuration not stated)	inconclusive: 26.9 µM [inhibitor, partial curve, poor fit]
Cc1cc(/C=N/NC(=O)C(O)(c2ccccc2)c2ccccc2)c(C)n1-c1ccccc1	inconclusive: 23.9 µM [inhibitor, partial curve, poor fit]
Cc1ccc(C)c(N(CC(=O)NCC2CCCO2)C(=O)CCC(=O)Nc2nccs2)c1 (configuration not stated)	inactive
Cc1cc(NS(=O)(=O)c2ccc(NC(=O)CSc3nc4sc(C(=O)O)c(C)c4c(=O)[nH]3)cc2)no1	inconclusive: 21.3 µM [inhibitor, single point]
CC1CCC(NC(=O)c2ccc3snnc3c2)CC1 (configuration not stated)	inconclusive: 23.9 µM [inhibitor, single point]
COc1ccc(-c2c(NC(=O)CC(C)C)n(C)c3ccccc3c2=O)cc1OC	inactive
